Experimental data reported in patent US20240024383A1, “ENGINEERED PROBIOTIC COMPOSITIONS AND USES THEREOF” (priority 2020, published 2024).

Assay: Nitrocefin hydrolysis assay for β-lactamase activity in culture supernatants
Type: biochemical
Settings: 0.1 mM nitrocefin, absorbance at 486 nm
Excerpt: A L. lactis strain was generated that is able to inactivate β-lactam antibiotics in its surroundings by secreting a split enzyme that is encoded in a two-gene biosynthesis pathway. By splitting β-lactam degradation into a genetically unlinked trait the selective advantage conferred upon a single locus was removed, thereby limiting the possible spread of the engineered trait in the population through a single HGT event. To achieve this, a heterodimeric version of the TEM1 β-lactamase (spTEM1) that regains its activity when reconstituted in the extracellular environment was generated.
β-lactamase assay. Nitrocefin (BioVision) was dissolved in DMSO to make a 1 mM stock. It was added to samples bacterial culture supernatant in a clear-bottom 96-well plate to a final concentration of 0.1 mM. The plate was placed in a spectrophotometer SpectraMaX™ M5 (Molecular Devices) to read absorbance at 486 nm over time.

B1: SC-BLF-2: SpyCatcher fused to TEM1 β-lactamase fragment BLF2 with usp45 secretion signal (SEQ ID NO: 8) (protein)
chain: MKKKIISAILMSTVILSAAAPLSGVYAGAMVDTLSGLSSEQGQSGDMTIEEDS[about 80 residues not shown]GKATKGDAHIGGGGSGGGGSLLTLASRQQLIDWMEADKVAGPLLRSALPAGWFIADKSGAGERGSRGIIAALGPDGKPSRIVVIYTTGSQATMDERNRQIAEIGASLIKHW
With B1 the “β-lactamase activity (nitrocefin hydrolysis)” value was “do not display β-lactamase activity”.
